In all, about 150,000 compounds went through this assay and about 540 (0.36%) showed an effect of 50% or more. Some of the results follow.
tested on: Plasmodium falciparum; experiment: Primary screen in NF54 nanoGlo assay, in single point, at 2uM, 72h; a lower Z score goes with more inhibition; assay type: functional, Erythrocyte; conditions: timepoint 72 hour

| SMILES | % Inhibition [%] | Z score |
| --- | --- | --- |
| CC(C)(C)OC(=O)N1CCC(CCOS(C)(=O)=O)CC1 | 4 | -0.52 |
| CC1(C#N)CN(C(=O)c2ccc3c(c2)C(C)(C)CO3)C1 | 7 | -0.78 |
| Nc1cc(S(=O)(=O)c2ccc(Cl)cc2)ccc1Cl | 0 | -0.02 |
| COCC1(C(=O)NC(c2ccc(F)cc2)[C@H]2C[C@@H](O)C2)CCC1 (some centres undefined) | 0 | -0.04 |
| CCOC(=O)NCC(=O)Nc1ccc(Br)cc1 | 11 | -1.15 |
| Cc1ccc([C@H](NC2CCN(C)CC2)c2cccnc2)cc1C | 5 | -0.64 |
| CC1OCCC1(O)CNC(=O)c1csnn1 (centres undefined) | -1 | 0.17 |
| O=C(N[C@@H]1[C@@H]2CCO[C@@H]2[C@@H]1C1CCCC1)c1cnc(C2CC2)[nH]c1=O | -4 | 0.67 |
| COC1CCN(C(=O)C2CC3CCCC(C2)C3=O)CC1 (centres undefined) | -3 | 0.45 |
| COC(=O)C1(CS(=O)(=O)N2CC[C@H](N3CCC3)C2)CCC1 | -10 | 0.9 |
| O=C(CN1C(=O)CCC1=O)Nc1sccc1-c1nc2ccccc2s1 | -3 | 0.46 |
| CCc1cc2c(N3CCC(c4cc(N)[nH]n4)CC3)nc(C)nc2s1 | -1 | 0.14 |
| CCc1ccc([C@@H]2CCCN2Cc2c(C)nnn2CC)o1 | -4 | 0.5 |
| Cc1ccc(-c2ccnn2C)cc1NC(=O)c1cscn1 | 32 | -4.65 |
| COc1ccc([C@@]2(C(=O)NCc3ccc4nsnc4c3)CC2(C)C)cc1 | -1 | 0.2 |
| NC(=O)C(NC(=O)Cc1ccccc1F)C(N)=O | -12 | 1.1 |
| CC(C)Cc1ccccc1CNC(=O)N[C@H]1CCC(=O)N(C)C1 | 4 | -0.61 |
| CCOC(=O)[C@@H]1CCCN1S(=O)(=O)N1CCN(c2cccc(Cl)c2)CC1 | -17 | 2.61 |
| Cc1nnc(N2CC(C#N)C3(C2)C(=O)Nc2ccccc23)c(C#N)c1C (centres undefined) | -6 | 0.61 |
| CCCc1cc(C(=O)NCc2nc(-c3ccccc3NC(=O)[C@@H]3CCCO3)oc2C)n(C)n1 | -4 | 0.74 |
| COc1nc(NCC2CCN(C(C)=O)CC2)ncc1F | -6 | 1.15 |
| O=C(CCc1ccon1)NCc1cc(C2CC2)ccc1F | -12 | 2.16 |

| SMILES | % Inhibition [%] | Z score |
| --- | --- | --- |
| CCc1ncnc(O[C@H]2CCN(S(=O)(=O)CCC(F)(F)F)C2)c1F | 6 | -1.01 |
| Cc1cc(C)c(C(=O)N2CCC[C@H](N(C)Cc3ccccc3)C2)o1 | -11 | 1.62 |
| C#CCCC(=O)NCCCC1CCCCC1 | -24 | 2.81 |
| COc1cccc(C(=O)N2CCOc3ccc(CN4CCCC4)cc3C2)c1 | -6 | 1.12 |
| COc1cccc(-c2n[nH]c(CC(C)C)c2NC(=O)c2ccccc2Cl)c1 | -11 | 2.04 |
| Cc1ccc(-n2nc(-c3ccccc3)nc2C[C@H]2CCS(=O)(=O)C2)cc1C | 5 | -0.73 |
| CCC[C@H](NC(=O)Nc1ccc(OC)c(C(=O)N(C)C)c1)c1nccn1C | -11 | 1.64 |
| Cc1cccc(-c2nnc3c4ccc(Cl)cc4nc(N(C)Cc4ccco4)n23)c1 | 40 | -3.9 |
| FC(F)(F)C1CCCC(c2nnc(-c3cccnc3)o2)C1 (centres undefined) | -8 | 1.28 |
| CC(=O)N[C@H]1CN(C(=O)CCCS(N)(=O)=O)C[C@@H]1c1ccc(C)cc1 | -4 | 0.54 |
| COc1ccc(CC(=O)NCc2cc3n(n2)CCN(S(C)(=O)=O)C3)cc1 | -13 | 1.89 |
| Cc1noc(C)c1S(=O)(=O)Nc1ccc(F)cn1 | -9 | 0.91 |
| O=C(CCNC(=O)c1cncc(Br)c1)Nc1cccnc1 | -4 | 0.46 |
| CCNC(=O)CNc1nc(C(F)(F)F)cs1 | -5 | 0.6 |
| CCc1cc(N2CC(n3nc(C)cc3C)C2)n2nccc2n1 | -7 | 1.3 |
| Cc1ccc2nc(-c3ccc(N4C(=O)C[C@H](N5CCCCCC5)C4=O)cc3)sc2c1 | -9 | 1.68 |
| COc1cnc(NC(=O)NC2CCOC2C2CC2)nc1 (centres undefined) | 21 | -2.5 |
| CN(C)c1ccc(NC(=O)COc2ccc3ccccc3c2)cc1 | -5 | 0.73 |
| CCCCn1nc(Cc2cccnc2)nc1[C@H](C)n1nc(C)cc1C | -3 | 0.43 |
| O=C(NCc1cncc(-c2ccoc2)c1)c1ccccc1Br | 17 | -2.2 |
| COc1ccc(-c2cnc3ncnn3c2N2CCN(C)CC2)cc1 | -3 | 0.55 |
| CC1=C(c2ccc(F)cc2)S(=O)(=O)N=C1N1CCN(c2ccccc2F)CC1 | -6 | 0.82 |

| SMILES | % Inhibition [%] | Z score |
| --- | --- | --- |
| CCc1ccc([C@@H]2CN(C(=O)c3ccnc(C#N)c3)CCO2)cc1 | 15 | -1.92 |
| O=S(=O)(NCc1ccc(N2CCCC2)cc1)c1cccs1 | -2 | 0.45 |
| O=C(O)c1cc2cc(-c3ccc(Cl)cc3)ccc2[nH]c1=O | -10 | 1.29 |
| Cc1nc(-c2cc(S(=O)(=O)NCc3cccc(C(F)(F)F)c3)c(C)s2)cs1 | 16 | -1.85 |
| Cc1ncsc1CNC[C@H]1CCCn2cc(C(C)(C)C)nc21 | -10 | 1.46 |
| C[C@H](OC(=O)Cc1ccc(F)cc1F)c1ccccn1 | -10 | 0.96 |
| O=C(NCc1ccc2c(c1)OCO2)C1CC(c2ccccc2)CN(Cc2ccccc2)C1 (centres undefined) | 6 | -0.73 |
| COc1csc(C(=O)Nc2ccc(N(C)C)cn2)c1 | -13 | 1.93 |
| CCc1nc(CNc2cc(C(=O)N3CCOCC3)ccc2C)cs1 | 4 | -0.72 |
| COC[C@H](C)NC(=O)CCc1ccccc1Cl | -6 | 0.93 |
| C[C@H](OC1CCCCCC1)C(=O)NS(=O)(=O)c1cccnc1 | -17 | 3.32 |
| CCOc1ncc(NC(=O)c2cccc(OC)c2OC)c(OCC)n1 | -13 | 2.48 |
| Cc1nc([C@H]2CCOC2)cc(N2CCN(Cc3ccccc3F)C(=O)C2)n1 | -13 | 1.64 |
| OC1CCCN(Cc2cc(F)cc3c2OC(c2ccsc2)OC3)C1 (centres undefined) | -4 | 0.34 |
| C=C(C)CN(CC)c1nn2cc(C(C)(C)C)nc2s1 | -3 | 0.44 |
| COc1nc(-c2cccc(C(F)(F)F)c2)n(-c2cccc(NC(=O)c3ccc(C(F)(F)F)cc3)c2)n1 | -5 | 0.64 |
| CCNC(=O)N1C[C@H](c2nc(-c3ccc(F)cc3)no2)C2(CCOCC2)C1 | -7 | 1.26 |
| CC1(C)C[C@H](O)c2c(OCc3nnc(C4CC4)o3)cccc2O1 | -8 | 1.21 |
| CCCCOc1ccc(-c2cc3c(N4CCN(c5ccccc5C)CC4)nccn3n2)cc1 | -7 | 1.07 |
| O=C1CCCN1CC[C@H]1CCCCN1C(=O)Nc1cc(F)ccc1F | -15 | 2.02 |
| Cn1cc(Cl)cc1C(=O)Nc1ccccc1Oc1ccccc1 | -5 | 0.61 |
| Cc1cccc(CNC(=O)c2cc3n(n2)CCCC3)c1 | -14 | 1.54 |

| SMILES | % Inhibition [%] | Z score |
| --- | --- | --- |
| O=C(Nc1cc(Oc2ccc(F)cc2)cc(Oc2ccc(F)cc2)c1)c1cc2nc(-c3ccccc3)cc(C(F)(F)F)n2n1 | -2 | 0.27 |
| CCNC(=O)c1ccc(OC(C)C)cc1 | -35 | 4.07 |
| O=C(Cn1cnnn1)N1CC2C3CCC(C3)C2C1 (centres undefined) | -2 | 0.21 |
| Cc1cc(C)cc(Nc2cc(C)n3c(=O)n(C)nc3n2)c1 | -17 | 1.86 |
| COc1cnc(NC(=O)N2CCC(N3CCCC3)C2C)s1 (centres undefined) | -8 | 1.3 |
| COc1ccc(C(=O)N2CCc3ccccc3[C@H]2C)cc1F | 23 | -2.21 |
| COc1cccc(C(=O)N2CCC[C@@]3(CCNC3)C2)c1O | -19 | 1.74 |
| FC(F)c1coc(-c2ccc(OC[C@H]3CCCCO3)cc2)n1 | -11 | 1.84 |
| c1cncc(-c2n[nH]cc2CNCc2nccs2)c1 | 7 | -0.87 |
| Cc1nc(N2CCC3(NC(=O)CC4CCOCC4)CCCC23)c2cnn(C)c2n1 (centres undefined) | 16 | -2.05 |
| CCN(C[C@H](C)C#N)S(=O)(=O)c1ccc(C)cc1Br | -10 | 1.1 |
| CCOC(=O)Cc1nc(CNc2ccccc2)n[nH]1 | -10 | 1.68 |
| COc1ccccc1CNC(=O)c1snc(-c2ccncc2)c1N | -20 | 1.92 |
| CCN(CC)C(=O)N1CCCN(C(=O)COc2ccccc2)CC1 | -5 | 0.62 |
| c1ccc2c(c1)OCCN2Cc1noc(C2CC2)n1 | -5 | 0.86 |
| CCc1ccc(-c2c(C)sc(NC(=O)c3c(C)noc3C)c2C(N)=O)cc1 | -7 | 1.05 |
| CCOC(=O)C[C@](C)(NC(=O)c1ccn(C)c1C)C(C)C | -10 | 0.86 |
| CCc1cc(Br)c(C)nc1N | -7 | 0.95 |
| CCN(CC)c1nc(-c2cccc(Cl)c2)nc2ncccc12 | -12 | 2.37 |
| CN1CC(=O)N=C1NC(=O)Nc1cccc(Cl)c1 [FENOBAM ANHYDROUS] | -3 | 0.5 |
| COC[C@@H](O)CN(Cc1c(-c2ccccc2)nn(C)c1Oc1cccc(OC)c1)C(C)C | 14 | -1.8 |

From ChEMBL document CHEMBL4888484, “Replenishing the malaria drug discovery pipeline: Screening and hit evaluation of the MMV Hit Generation Library 1 (HGL1) against asexual blood stage Plasmodium falciparum ,using a nano luciferase reporter read-out” (2022)
